# Assay results from PubChem BioAssay AID1671193 (National Center for Advancing Translational Sciences (NCATS), 2021).
# The campaign covered roughly 150,000 compounds. About 180 (0.12%) were called active. Inconclusive results, whose numbers are uncertain, are shown with a selection of clear calls. The call rests on the fitted dose curve; in most records, active means well fitted cell-killing curve with a large enough effect; inconclusive means small, poorly fitted or top-dose-only effect, or effect the other way; inactive means flat fitted curve, though single readings scatter. Where the call is inconclusive, the potency comes from a doubtful curve fit.
# Experiment: GF-AFC viability counterscreen for inhibitors of alpha-synuclein gene (SNCA) expression; further: nearly all actives have a fitted effect of over 30% in size;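 on activity change, negative = cytotoxicity: 0% = DMSO-treated cells and -100% = medium-only wells without cells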
# Details: HEK-293-SNCA-luc viability, GF-AFC fluorescence, 24 h; activity change, negative = cytotoxicity: at 57.1 µM (top of the series) unless noted
# Summary of the method: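 Cytotoxicity counterscreen: after 24 h compound treatment of genome-edited SNCA-luciferase HEK-293 cells, live-cell protease substrate GF-AFC read by fluorescence after 30 min; activity scaled between DMSO (0%) and medium-only (-100%), curves Hill-fitted.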
# Potency means the concentration at half of the fitted maximal effect; tags describe the fitted curve by direction and shape.
Compound,Potency,"activity change, negative = cytotoxicity"
CC(C)C(=O)N1CCCC(c2nn(C)c(=O)n2C(C)C)C1 (stereo not drawn),inactive,
COc1ccc(Cn2nnc3c(=O)[nH]c(C4CCCN(C(=O)c5ccccc5Cl)C4)nc32)cc1OC (stereo not drawn),"inconclusive: 39.8 µM [cytotoxic, single point]",
COc1cccc(C(=O)Nc2ccc3ncnc(N4CCCCC4)c3c2)c1,"inconclusive: 31.6 µM [cytotoxic, single point]",
COc1ncc2nc(-c3cccs3)c(=O)n(CCC#N)c2n1,"inconclusive: 22.4 µM [rising, partial curve]",
COc1cccc(CCC(=O)N2CCC(Cc3nc(-c4cccc(OC)c4)no3)CC2)c1,"inconclusive: 22.4 µM [cytotoxic, partial curve, poor fit]",
COc1ccc(C(=O)c2cn(Cc3ccccc3F)c3ccc(F)cc3c2=O)cc1,,inconclusive: -47.1%
Cc1ccc(OCc2nc(C3CCCN3C(=O)Nc3ccccc3)no2)cc1 (stereo not drawn),inactive,
Cn1nc(C2CCNC2)c2c(C(=O)NCc3ccc(F)cc3)cc(C3CC3)nc21 (stereo not drawn),inactive,
COCCOC(=O)C1=C(C)N=C2SC=C(CC(=O)N3CCCCC3C)N2C1c1ccccc1 (stereo not drawn),inactive,
C=C1C(=O)O[C@@H]2C3C(=C(C)[C@@H](O)[C@@H](OC(=O)/C(=C/C)COC(C)=O)[C@@H]12)C(=O)[C@H]1O[C@@]31C (stereo partly drawn),"inconclusive: 4.62 µM [cytotoxic, partial curve, poor fit]",
COc1ccc(-c2nc(CCNC(=O)c3cc(OC)c(OC)c(OC)c3)cs2)cc1,inactive,
CCN1CCC(N2CCC(Oc3ccccc3-c3nc(-c4ccncc4)no3)C2)CC1 (stereo not drawn),active: 14.1 µM,
COCCOC1CN(C2CCN(C(=O)c3ccc4cc[nH]c4c3)CC2)C12CCCCC2 (stereo not drawn),inactive,
CNc1ccc(C(=O)N2CCC3(CCCNC3)C2)cc1 (stereo not drawn),"inconclusive: 22.4 µM [cytotoxic, partial curve, poor fit]",
CC(C)c1ccc(C2c3c(-c4ccccc4O)n[nH]c3C(=O)N2CCc2ccccc2)cc1 (stereo not drawn),"inconclusive: 39.8 µM [cytotoxic, single point]",
Cc1nc(-c2ccc(Cl)cc2)n(Cc2cccc(C(F)(F)F)c2)c(=O)c1CCO,"inconclusive: 39.8 µM [cytotoxic, single point]",
O=C(CN1CC2CC(C1)[C@H]1CCCC(=O)N1C2)NCCCc1ccccc1 (stereo partly drawn),inactive,
Cc1c(C(=O)NCCN(C)C)oc2c1-c1nn(Cc3ccccc3Cl)cc1CC2,"inconclusive: 3.55 µM [rising, full curve]",
CCOC(=O)c1ccc(NC2=CC(c3ccc(Br)cc3)N(c3ccc(C(=O)OCC)cc3)C2=O)cc1 (stereo not drawn),"inconclusive: 39.8 µM [rising, single point]",
Cc1cccc(C2NC(=O)c3c(sc4c3CCN(C)C4)N2)c1O (stereo not drawn),"inconclusive: 28.2 µM [rising, single point]",
COc1ccc(Nc2ccnc(N3CCCC(C(=O)N4CCC(c5ccccc5)CC4)C3)n2)cc1 (stereo not drawn),"inconclusive: 28.2 µM [cytotoxic, partial curve, poor fit]",

Compound,Potency,"activity change, negative = cytotoxicity"
COc1cccc(CN2C(=O)c3ccccc3C2C(=O)NCCc2ccc(OC)c(OC)c2)c1 (stereo not drawn),"inconclusive: 39.8 µM [cytotoxic, single point]",
CCn1ccc(C(=O)N2CCCCCCNC(=O)[C@@H]3C[C@@H](c4nc(Cc5ccccc5)no4)C[C@@H]32)n1,"inconclusive: 6.31 µM [cytotoxic, single point]",
CN(C)c1ccc(CN(CC2CCCO2)C(=O)COc2ccc(Cl)cc2)cc1 (stereo not drawn),"inconclusive: 35.5 µM [cytotoxic, single point]",
O=S1(=O)CCN(c2cccc(-c3nc(C4CCOC4)no3)c2)CC1 (stereo not drawn),inactive,
CCCn1c(=O)c2sccc2n2c(CCCC(=O)NCCOC)nnc12,"inconclusive: 39.8 µM [cytotoxic, single point]",
COCCCn1c(=N)c(C(=O)NC2CCCC2)cc2c(=O)n3ccccc3nc21,"inconclusive: 25.1 µM [rising, partial curve]",
Cc1ccc(Nc2nccc(N(C)c3ccc4c(C)n(C)nc4c3)n2)cc1S(N)(=O)=O,"inconclusive: 23.8 µM [cytotoxic, partial curve]",
O=C(CN1C(=O)NC(c2ccc(Cl)cc2)C2=C1COC2=O)Nc1cccc(Br)c1 (stereo not drawn),"inconclusive: 39.8 µM [cytotoxic, single point]",
COc1ccc(-c2cc(N3CCCN(C(=O)Cc4ccc(Cl)cc4)CC3)n[nH]2)cc1,inactive,
CCOc1ccc(CCNC(=O)c2cc3c(-c4cccc(OC)c4)nn(C)c3s2)cc1OCC,"inconclusive: 17.8 µM [cytotoxic, partial curve, poor fit]",
Cc1cccc(Cn2c(C)c(C)c3cc(C(=O)NCc4ccc(C)o4)ccc32)c1,"inconclusive: 7.08 µM [rising, single point]",
Cc1ccc2nc(/C(C#N)=C/c3ccc(-c4cccc(Cl)c4)o3)[nH]c2c1,"inconclusive: 35.5 µM [rising, partial curve]",
CCCc1noc(-c2cccn3c(CNC(=O)c4ccccc4C)nnc23)n1,inactive,
CCOC(=O)c1nc(Nc2cccc(C)c2)c2ccccc2n1,"inconclusive: 1.78 µM [cytotoxic, full curve, poor fit]",
CCN(CC)c1ccc2c(O)c(C=Nc3ccc(CC(=O)O)c(-c4c5c(nc6ccccc46)CCC(C(=O)NN)C5)c3)c(=O)oc2c1 (stereo not drawn),"inconclusive: 37.7 µM [cytotoxic, single point]",
O=S(=O)(Nc1nc2n(n1)C(c1ccccc1)C=C(c1ccc(Cl)cc1)N2)c1ccccc1 (stereo not drawn),"inconclusive: 35.5 µM [rising, partial curve]",
COc1ccc(-c2nc3c(c(-c4ccccc4)n2)CN(C(=O)c2cccc(Cl)c2)CC3)cc1,"inconclusive: 39.8 µM [cytotoxic, single point]",
COc1ccc(Cl)cc1-c1ccc2c(c1)C(=O)N1CC[C@H](NC(=O)c3cccs3)[C@H]1C(=O)N2,"inconclusive: 20 µM [cytotoxic, single point]",
N#Cc1cccc(-c2cn3c(n2)N(C(=O)c2ccccc2)CCC3)c1,inactive,
O=C(Cn1cc(SCc2ccccc2Cl)c2ccccc21)N1CCCCCC1,"inconclusive: 39.8 µM [cytotoxic, single point]",
CCNc1ncc2nc(-c3cccs3)c(=O)n(Cc3cccs3)c2n1,"inconclusive: 11.2 µM [rising, partial curve]",

Compound,Potency,"activity change, negative = cytotoxicity"
C1=C(c2nc(-c3ccncc3)cc3c2ccn3Cc2cccnc2)CCOC1,inactive,
CCOc1cc(C(=O)N2CCC[C@H]2c2nc(-c3ccc(OC)cc3)no2)cc(OCC)c1OCC,"inconclusive: 3.16 µM [cytotoxic, full curve]",
COc1cccc(N2C(=O)NC(=NC3CCCC3)C23CCCN(CCC(C)C)C3)c1 (stereo not drawn),"inconclusive: 39.8 µM [cytotoxic, single point]",
COC1CN(C2CCN(C(=O)c3cccc4[nH]ccc34)CC2)C12CCOCC2 (stereo not drawn),inactive,
CCN(CC)Cc1nnc2cc(-c3nc(-c4ccccc4)no3)ccn12,inactive,
COc1ccc(-c2noc(CC3CCN(C(=O)Cc4ccc(OC)c(Cl)c4)CC3)n2)cc1,inactive,
O=C(c1ccc(-c2ccc(N3CCSCC3)nc2)cc1)N1CCCCC1,inactive,
COCCN1CCN(C[C@@H]2C=C(C)[C@H](Cc3nnc(-c4ccc(OC)cc4)o3)C[C@H]2C(C)C)CC1,"inconclusive: 7.08 µM [cytotoxic, partial curve]",
COc1ccc(-n2c(=O)c3c4c(sc3n(Cc3cc(=O)n5c(C)cccc5n3)c2=O)CCC4)c(OC)c1,"inconclusive: 11.2 µM [cytotoxic, partial curve, poor fit]",
c1ccc(CCCN[C@H]2CO[C@H]3[C@@H]2OC[C@@H]3n2cc(-c3ccccc3)nn2)cc1,"inconclusive: 35.5 µM [cytotoxic, partial curve, poor fit]",
CCc1ccc(C2Sc3ccccc3NC3=C2C(=O)c2ccccc23)cc1 (stereo not drawn),"inconclusive: 15.8 µM [cytotoxic, partial curve, poor fit]",
O=C(O)CCC(=O)N1Cc2ccccc2CC2(CCCCN2CCc2ccccc2)C1 (stereo not drawn),inactive,
O=C(NCCc1ccc(Cl)cc1)c1ccc2nnc(-c3cccc(C(F)(F)F)c3)n2c1,"inconclusive: 35.5 µM [cytotoxic, single point]",
CCc1cnc(N2CCC(COc3ccc4c(cnn4CC[S+](C)(=O)[O-])c3)CC2)nc1,inactive,
O=C(NCC1CC1)c1cccc(OC2CN(Cc3cc(F)c(F)c(F)c3)C2)c1,inactive,
CCN1c2cc(C(=O)Nc3ccc(Cl)c(C)c3)ccc2C(=O)N2CCCCC21 (stereo not drawn),"inconclusive: 7.08 µM [rising, single point]",
COc1ccc(NC(=O)CN2C(=O)COc3ccc(S(=O)(=O)Nc4ccccc4)cc32)cc1,"inconclusive: 2.24 µM [cytotoxic, full curve, poor fit]",
Cc1ccc(C(=O)NC2CCN(C(=O)N3CC4CC(C3)[C@H]3CCCC(=O)N3C4)CC2)cn1 (stereo partly drawn),"inconclusive: 7.08 µM [rising, single point]",
CCCNC(=O)NC[C@@H]1C=C(C)[C@H](Cc2nc3nc(OC)ccc3[nH]2)C[C@H]1C(C)C,"inconclusive: 31.6 µM [cytotoxic, single point]",
Cc1cccc(CNC(=O)c2ccc3c(c2)N(C)C2CCCCCN2C3=O)c1 (stereo not drawn),"inconclusive: 7.08 µM [rising, single point]",
Cc1noc(C)c1CN1C[C@@H]2[C@H](C1)N(CCOc1ccccc1)C(=O)C(C)(C)[S+]2(=O)[O-],inactive,
